Measured values: PubChem BioAssay AID686971 (National Center for Advancing Translational Sciences (NCATS), 2013)
In all, about 360,000 compounds went through this assay and about 7,500 (2.1%) were called active. Inconclusive means that the source gave no clear call. Such entries were picked first, then a sample of the others. Calls come from the whole dose curve; as a rule, active = well fitted cell-killing curve with a large enough effect; inconclusive = small, poorly fitted or top-dose-only effect, or effect the other way, or another doubt; inactive = no such curve, though single readings can be large or run the other way. No potency is given beside an inconclusive call; the fits are too rough.

Assay: qHTS for induction of synthetic lethality in tumor cells producing 2HG: qHTS for the HT-1080-IDH1KD cell line;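 for activity, negative = toxicity: 0% = DMSO wells and -100% = cell-free medium wells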
Details: HT-1080 IDH1 knockdown viability, ATP luminescence, 48 h; activity, negative = toxicity: at 46.1 µM (top of the series) unless noted
Outline: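 After a 2 h attachment period, IDH1KD HT-1080 cells took pin-transferred compound for 48 h at 37 °C; ATP-based luminescence after 10 min room-temperature reagent incubation reported viability.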
Potency is the fitted concentration of half-maximal effect; tags give direction and shape of the fitted curve.

Compound | Potency | activity, negative = toxicity
O=C(CSc1nc2ncccc2[nH]1)NCc1ccccc1 | inconclusive [rising, partial curve, poor fit] | –
CCc1c(-c2ccc(Cl)cc2)ncn1Cc1cccc(-c2ccccc2)c1 | inconclusive [cytotoxic, single point] | –
COCCn1c(SCC(=O)Nc2ccc(NC(C)=O)cc2)nc2ccccc2c1=O | inconclusive [cytotoxic, single point] | –
Cc1ccc2nc(C)c(C(=O)NN=C3CCCCCC3)n2c1 | inconclusive [cytotoxic, partial curve] | –
CCCCCN(C(=O)CCC(=O)OCC(=O)N1CCC(C)CC1)c1c(N)n(CCCC)c(=O)[nH]c1=O | – | inactive: 0.648%
NC(=O)CC1C(=O)N(c2ccccc2)C(=S)N1NC(=O)c1ccccc1 (stereo not drawn) | – | inactive: 16.7%
Cc1nc2c(C)cccn2c(=O)c1NC(=O)c1ccc2c(c1)OCO2 | – | inactive: 0.315%
Cc1ccc(NC(=O)Nc2cccnc2)cc1Cl | – | inactive: -0.0498%
O=C(CCCN1C(=O)/C(=C\c2cccc(Br)c2)SC1=S)Nc1cccnc1 | active: 13 µM | –
CC(=O)Nc1cc(-c2ccccc2N(C)C)cn2c(-c3ccc(F)c(Cl)c3)cnc12 | inconclusive [cytotoxic, single point] | –
NC(N)=N/N=C/c1ccc(OCc2ccccc2Cl)cc1 | active: 15.8 µM | –
COc1ccccc1-c1ccc2c(c1)C(C)(Cc1cccc(C#N)c1)C(=O)N2 (stereo not drawn) | inconclusive [cytotoxic, partial curve] | –
CN1/C(=C/C2CC(=O)NC2=O)C(C)(C)c2ccccc21 (stereo not drawn) | – | inactive: -21%
COc1ccc(C)cc1NC(=O)c1ccccc1NS(=O)(=O)c1ccc(Cl)s1 | active: 16.4 µM | –
c1ccc2c(-c3c[nH]c4ccccc34)c3ccccc3nc2c1 | inconclusive [cytotoxic, single point] | –
CC(=O)NCCC(=O)Nc1nc2c(ccc3ccccc32)s1 | inconclusive [cytotoxic, single point] | –
O=C(/C=N/O)Nc1ccc2sc3ccccc3c2c1 | inconclusive [cytotoxic, partial curve] | –
CC1=NN(c2ccccc2)C(=O)/C1=C/C=C/c1ccc(N(C)C)cc1 | – | inactive: -2.17%
CC(C)=CCCC(C)=CCN1C(=O)CN(C)C1=O | – | inactive: 5.91%
O=C(N/N=C/c1cccs1)c1cc(-c2cccc3ccccc23)n[nH]1 | inconclusive [cytotoxic, single point] | –
O=C(N/N=C/C(Br)=C/c1ccccc1)c1ccncc1 | inconclusive [cytotoxic, single point] | –
COC(=O)/C(=C1/Oc2ccc(C(C)(C)C)cc2S1)C(F)(F)F | inconclusive [rising, partial curve, poor fit] | –
CCN(CC)c1ccc(NC(=O)c2c(OC)cccc2OC)c(C)c1 | – | inactive: 8.95%
NC(=O)c1cccc(Nc2nc(C(N)Cc3ccc(C(F)(F)F)cc3)cs2)n1 (stereo not drawn) | inconclusive [cytotoxic, full curve] | –

Compound | Potency | activity, negative = toxicity
Cc1cc(C)n(-c2nc(NCCCN(C)C)c3c4c(sc3n2)CCCC4)n1 | inconclusive [cytotoxic, single point] | –
CC(C)(C)c1csc(SCC(=O)Nc2ccc(Cl)cn2)n1 | inconclusive [cytotoxic, partial curve] | –
CN1/C(=C/C=C(/C#N)C(N)=O)C(C)(C)c2ccccc21 | active: 5.8 µM | –
O=C(COc1ccc(/C=N/NC(=O)CSCc2ccc([N+](=O)[O-])cc2)cc1)NCc1ccco1 | – | inactive: -3.71%
CC(C)C(=O)Nc1ncc(Cc2ccc(Cl)cc2)s1 | inconclusive [cytotoxic, partial curve, poor fit] | –
OCCNc1nc2ccccc2n1CC(O)c1ccccc1 (stereo not drawn) | – | inactive: 28.4%
O=C(c1n[nH]c2ccccc12)N1CCN(S(=O)(=O)c2ccc(Cl)cc2)CC1 | – | inactive: 6.34%
C/C(N)=C(/C#N)C(=O)CSc1nnc(-c2ccc(OC(F)F)cc2)o1 | inconclusive [cytotoxic, single point] | –
O=C1CSc2ccc(C(=O)N3CCCCC3)cc2N1 | – | inactive: -1.39%
CC(=O)Oc1ccc(C(=O)Nc2cccc(C(=O)c3cccc(NC(=O)c4ccc(OC(C)=O)cc4)c3)c2)cc1 | inconclusive [cytotoxic, partial curve] | –
Fc1ccc(-c2nc3ccc(Cl)cn3c2Cc2cccc(F)c2)cc1 | inconclusive [cytotoxic, single point] | –
COc1ccc(/C=C2\SC(=N)N(c3nccs3)C2=O)cc1OC | inconclusive [cytotoxic, partial curve] | –
CC(c1ccccc1)N1C(=O)c2ccc(C(=O)Nc3ccc(Br)cc3C(=O)O)cc2C1=O (stereo not drawn) | – | inactive: 10.8%
CCCCN(C(=O)CCC(=O)Nc1cc(C)on1)C(C(=O)NC1CCCC1)c1ccccc1OCC (stereo not drawn) | – | inactive: -0.804%
CCN(CC)S(=O)(=O)c1ccc(/C=C/C(=O)O)cc1 | – | inactive: 9.79%
CNC(=O)Nc1cccc(C(F)(F)F)c1 | – | inactive: 0.443%
CCOC(=O)[C@]12CCC=C1N(Cc1cccc3ccccc13)C(=O)[C@H](CC(=O)NCCCCc1ccccc1)C2 | – | inactive: -19.1%
COc1ccc(OCc2nnc(SCC(=O)N(C)Cc3ccccc3)n2N)cc1 | – | inactive: -1.75%
COC(=O)[C@]12CCCCC=C1N(CCc1ccc(OC)c(OC)c1)C(=O)[C@H](CC(=O)NCc1cccc3ccccc13)C2 | inconclusive [cytotoxic, single point] | –
CCOC(=O)C(=Nc1ccc(Cl)cc1)NO | – | inactive: 23.9%
O[C@@H]1CN(CC2CCCCC2)[C@@H](c2ccc(Cl)cc2)C[C@H]1n1cc(C2CC2)nn1 | – | inactive: -0.54%
CN(C)S(=O)(=O)Oc1cccc(C(=O)Nc2ccc(Cl)cc2)c1 | inconclusive [cytotoxic, partial curve] | –
Cc1[nH][nH]c(=O)c1C(c1c(C)[nH][nH]c1=O)c1cn(Cc2ccccc2Cl)c2ccccc12 | active: 18.4 µM | –
CCCn1c(=N)n(CC(=O)c2ccc(Cl)c(Cl)c2)c2ccccc21 | inconclusive [cytotoxic, single point] | –
